# Measured values from the supplement of paper PMC7826260.
# The list shows a part of the results. Cleavage of a single-stranded DNA pool by Rep nickase domains was read by sequencing (1 h at 37 °C, 3 µM enzyme); the outer parts of the 90-letter strands are left off. Values are log2 of uncut reads against the no-enzyme pool; uncut sequences lie near 0, cut ones below; no hit call is given. Because reads are shares of a total, they shift together; values above 0 arise when much of the pool is cut.
# What was measured:
# Experiment in all cases: uncleaved DNA left, log2 of reads against the no-enzyme library (log2 ratio); higher = less cleavage (more negative = more Rep cleavage of the k-mer); sequences stand for … in CTCGTCCG…ACCGGAGA
# [1] = test system: T1, Rep nickase domain of Muscovy duck circovirus
# T1 sequence (Rep 1-111, printed without the tag): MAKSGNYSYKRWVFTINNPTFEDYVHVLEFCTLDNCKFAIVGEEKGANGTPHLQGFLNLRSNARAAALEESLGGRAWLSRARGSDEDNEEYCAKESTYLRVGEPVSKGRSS
# Experimental: (§1)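 A pool of 90-nt single-stranded DNAs with seven random bases just before the constant AC of the nick site (name = the seven bases) was cut by 3 µM recombinant His6-SUMO-tagged Rep nickase domain (300 nM DNA, 50 mM HEPES pH 8.0, 50 mM NaCl, 1 mM MnCl2, 1 h, 37 °C, three replicates). Uncut DNA was amplified and sequenced.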
# [2] = test system: T2, Rep nickase domain of banana bunchy top virus
# T2 sequence (Rep 1-94, printed without the tag): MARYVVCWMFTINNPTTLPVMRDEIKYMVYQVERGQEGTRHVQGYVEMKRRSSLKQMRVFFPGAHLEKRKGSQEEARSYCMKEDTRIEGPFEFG
# Experimental: as §1
# [3] = test system: T3, Rep nickase domain of cabbage leaf curl virus
# T3 sequence (Rep 1-116, printed without the tag): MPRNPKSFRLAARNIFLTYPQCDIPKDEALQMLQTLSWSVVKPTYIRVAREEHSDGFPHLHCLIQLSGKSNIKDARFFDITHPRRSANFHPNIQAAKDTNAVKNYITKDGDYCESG
# Experimental: as §1
# [4] = test system: T4, Rep nickase domain of chickpea chlorotic dwarf virus
# T4 sequence (Rep 1-124, printed without the tag): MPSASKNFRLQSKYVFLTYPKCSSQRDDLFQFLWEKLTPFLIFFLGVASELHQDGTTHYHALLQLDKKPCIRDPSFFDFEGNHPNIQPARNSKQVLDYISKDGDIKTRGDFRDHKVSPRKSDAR
# Experimental: as §1
# [5] = test system: T5, Rep nickase domain of faba bean necrotic yellows virus
# T5 sequence (Rep 1-98, printed without the tag): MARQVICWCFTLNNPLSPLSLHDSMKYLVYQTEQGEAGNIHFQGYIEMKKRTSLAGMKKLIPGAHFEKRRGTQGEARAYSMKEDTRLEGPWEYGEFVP
# Experimental: as §1
# [6] = test system: T6, Rep nickase domain of maize striate mosaic virus
# T6 sequence (Rep 1-117, printed without the tag): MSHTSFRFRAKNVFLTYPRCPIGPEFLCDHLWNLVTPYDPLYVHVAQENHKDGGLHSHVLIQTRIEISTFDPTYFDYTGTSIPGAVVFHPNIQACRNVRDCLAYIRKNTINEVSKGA
# Experimental: as §1
# [7] = test system: T7, Rep nickase domain of porcine circovirus 2
# T7 sequence (Rep 2-116, printed without the tag): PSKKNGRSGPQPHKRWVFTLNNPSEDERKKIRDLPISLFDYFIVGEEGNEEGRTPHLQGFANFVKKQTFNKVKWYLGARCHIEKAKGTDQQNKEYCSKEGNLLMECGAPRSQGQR
# Experimental: as §1
# [8] = test system: T8, Rep nickase domain of tomato golden mosaic virus
# T8 sequence (Rep 1-124, printed without the tag): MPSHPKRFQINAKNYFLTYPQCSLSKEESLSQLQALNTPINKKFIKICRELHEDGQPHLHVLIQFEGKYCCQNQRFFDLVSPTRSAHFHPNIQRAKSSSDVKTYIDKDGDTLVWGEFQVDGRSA
# Experimental: as §1
# [9] = test system: T9, Rep nickase domain of tomato yellow leaf curl virus
# T9 sequence (Rep 1-136, printed without the tag): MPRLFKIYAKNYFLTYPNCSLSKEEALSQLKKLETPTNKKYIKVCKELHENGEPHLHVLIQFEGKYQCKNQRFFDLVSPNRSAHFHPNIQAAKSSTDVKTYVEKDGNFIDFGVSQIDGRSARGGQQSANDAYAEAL
# Experimental: as §1
# [10] = test system: T10, Rep nickase domain of wheat dwarf virus
# T10 sequence (Rep 1-137, printed without the tag): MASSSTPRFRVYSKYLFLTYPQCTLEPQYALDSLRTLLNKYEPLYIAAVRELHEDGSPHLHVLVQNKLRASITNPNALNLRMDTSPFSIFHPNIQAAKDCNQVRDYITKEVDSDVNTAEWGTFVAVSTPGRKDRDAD
# Experimental: as §1
Sequence,uncleaved DNA left (log2) [1],uncleaved DNA left (log2) [2],uncleaved DNA left (log2) [3],uncleaved DNA left (log2) [4],uncleaved DNA left (log2) [5],uncleaved DNA left (log2) [6],uncleaved DNA left (log2) [7],uncleaved DNA left (log2) [8],uncleaved DNA left (log2) [9],uncleaved DNA left (log2) [10]
TCAGTTA,0.0441,-0.0468,0.089,-0.401,-0.0818,-0.0146,-0.00105,0.0579,-0.0214,-0.0867
GTTGTGG,-0.0769,-0.0971,-0.0731,0.103,-0.105,-0.316,-0.00359,0.0129,0.0498,-0.0889
GTACTTT,-0.0636,0.122,0.332,0.718,0.0267,1.84,0.0554,0.144,0.061,0.134
ATCACGG,0.0766,0.0953,0.48,1.34,0.0378,1.27,0.137,0.15,-0.0338,0.103
AAAATCC,-0.016,-0.022,-0.0211,-0.446,-0.0379,-0.608,0.0383,0.0014,-0.0854,-0.0236
GAGTGTA,-0.0901,-0.282,0.202,-0.0474,-0.268,0.941,-2.34,0.0326,0.0239,0.0147
TCAATTC,0.0707,-0.0493,0.0925,-0.128,-0.0183,-0.867,0.00374,-0.11,0.0101,0.0307
GTTGGGA,0.0551,0.176,0.331,0.882,0.0178,0.925,0.321,0.0934,0.0945,0.171
ATATAGA,0.117,0.142,-0.0796,-0.207,0.121,-0.987,0.174,0.162,0.216,0.109
TAGCAGA,-0.0409,-0.0846,-0.0675,-0.597,0.00954,-0.777,-0.133,0.0133,-0.051,-0.121
GGGAGGC,0.0803,0.0709,0.863,1.93,0.0414,2.23,0.228,-0.00706,-0.0865,0.0766
GCACTGT,-0.122,-0.137,-0.214,0.178,-0.132,0.443,-0.0611,-0.213,-0.178,-0.0648
AGTTGCA,-0.000642,0.0522,-0.645,-0.663,0.0429,-1.02,-0.106,0.0194,0.0916,-0.00924
CGATCGT,0.0612,0.0611,-0.161,-0.124,-0.0157,-0.488,-0.00255,0.0953,0.0414,0.0386
AGCCTAG,0.0579,0.0868,-0.109,-0.072,-0.0303,-0.505,0.197,0.0151,0.037,0.0011
TGCAGCA,0.0823,-0.0334,-0.294,-0.687,0.0061,-0.898,-0.358,-0.0434,0.0332,-0.0162
GAGATCT,0.0882,-0.152,0.449,-0.671,-0.0925,1.67,-2.67,0.152,0.15,0.261
GTTCAAA,-0.0391,0.114,0.384,0.965,0.0297,1.76,0.0848,0.174,0.0809,0.0475
GATGGCA,0.0353,-0.087,0.23,0.688,-0.0183,0.401,0.107,0.0323,0.0241,0.0658
ATTATGG,0.0129,-0.00472,-0.0491,0.357,-0.0346,-0.532,0.106,0.0802,-0.124,-0.00234
TAGGGAC,0.0751,0.105,0.882,2,0.0708,2.18,0.323,0.0952,0.118,0.188
TTGACTT,0.126,-0.0821,0.295,-0.0933,0.0146,1.19,-0.305,-0.09,0.0449,0.095
ATCATGA,-0.0892,0.0144,-0.291,-0.254,-0.121,-1.02,0.0261,-0.145,-0.0699,-0.133
AATCACC,0.0351,-0.0147,0.0412,-0.398,0.0691,-0.167,-0.0574,0.0425,0.0526,0.0599
AGACACG,0.0321,0.0507,-0.0226,0.373,-0.0586,-0.513,0.198,0.0648,-0.0685,0.0866
TTAACAA,0.0889,0.207,-0.156,-0.61,0.0968,-0.00432,0.129,0.074,0.173,0.189
ATTACAA,-0.0609,-0.0417,-0.114,-1.72,-0.0321,-0.636,-0.132,-0.0227,-0.0175,0.0674
AATGATC,-0.117,-0.248,0.0132,0.438,-0.112,0.645,0.0142,-0.0831,-0.0073,-0.024
